{"source": "PubChem BioAssay AID686978", "about": "(National Center for Advancing Translational Sciences (NCATS), 2013)", "note": "The campaign covered roughly 420,000 compounds. About 64,000 (15%) were called active. Inconclusive means that the source gave no clear call. Such entries were picked first, then a sample of the others. Calls come from the whole dose curve; as a rule, active = well fitted inhibition curve with a large enough effect; inconclusive = small, poorly fitted or top-dose-only effect; inactive = flat fitted curve, though single readings scatter. No potency is given beside an inconclusive call; the fits are too rough. % is set by controls: 0 for no effect and ±100 for the full control effect; potency is the fitted concentration of half-maximal effect; tags give direction and shape of the fitted curve.", "data": [{"assay": "qHTS for Inhibitors of human tyrosyl-DNA phosphodiesterase 1 (TDP1): qHTS in cells in absence of CPT; note: nearly all actives have a fitted effect of over 55% in size", "conditions": "DT40 Tdp1-/- hTDP1 cells, no CPT, ATP luminescence, 48 h; activity change, negative = growth inhibition: at 46.2 µM (top of the series) unless noted", "summary_of_the_method": "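Growth kinetics read by CellTiter-Glo luminescence after ≥48 hr at 37 °C. Cells: DT40 Tdp1-/- stably carrying human TDP1, 400 per well, compound exposure in the absence of CPT (DMSO vehicle).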", "values": [{"smiles": "CCOc1cc2c(cc1OCC)-n1cccc1C(c1ccc(F)cc1)NC2", "note": "(stereo not given)", "Potency": "inconclusive [inhibitor, single point]"}, {"smiles": "O=C(c1ccccc1)c1ccc2nc(N3CCN(c4ccc(F)cc4)CC3)c3nncn3c2c1", "Potency": "active: 8.2 µM"}, {"smiles": "COc1ccc(CCC(=O)N2C[C@H]3C[C@@H](C2)c2cccc(=O)n2C3)cc1", "activity change, negative = growth inhibition": "inactive: -6.8%"}, {"smiles": "O=c1c2ccccc2nc(-c2ccccc2Cl)n1-c1ccc(O)cc1", "Potency": "inconclusive [inhibitor, single point]"}, {"smiles": "COc1ccc(-c2n(-c3ccccn3)c3ccccc3[n+]2-c2ccccn2)cc1", "Potency": "active: 13 µM"}, {"smiles": "Cc1cc(C=C2C(=O)NC(=O)NC2=O)c(C)n1-c1ccc2c(c1)OCO2", "activity change, negative = growth inhibition": "inactive: -3.21%"}, {"smiles": "CCCCCCC(=O)N/N=C/c1c(O)n(C2CC2)c(=S)[nH]c1=O", "Potency": "inconclusive [inhibitor, single point]"}, {"smiles": "CCOC(=O)C1(c2ccccc2)CCN(CC(=O)Nc2cccc3ccccc23)CC1", "Potency": "inconclusive [inhibitor, partial curve]"}, {"smiles": "COCCCOc1ccnc(CS(=O)c2nc3ccccc3[nH]2)c1C", "note": "(stereo not given)", "Potency": "inconclusive [inhibitor, single point]"}, {"smiles": "COc1ccccc1NC(=O)Cn1c(=O)n(-c2cccc(Cl)c2)c(=O)c2sc3ccccc3c21", "Potency": "active: 6.51 µM"}, {"smiles": "O=[N+]([O-])c1ccc(NC2CCCC2)c2ccncc12", "Potency": "inconclusive [inhibitor, partial curve, poor fit]"}, {"smiles": "COc1cc2c(cc1O)CCNC2C", "note": "(stereo not given)", "activity change, negative = growth inhibition": "inactive: 0.391%"}, {"smiles": "Nc1ccccc1N=Cc1c(O)n(CCC2=CCCCC2)c(=O)[nH]c1=O", "Potency": "inconclusive [inhibitor, partial curve]"}, {"smiles": "Cc1cccc(NC(=O)CN2CCN(C(=O)COc3cccc(Br)c3)CC2)c1C", "Potency": "inconclusive [inhibitor, single point]"}, {"smiles": "CC(C)C/C(=N/O)c1cn(C)c2ccccc12", "activity change, negative = growth inhibition": "inactive: -4.93%"}, {"smiles": "CSc1ccccc1C(=O)C1CCCN(Cc2ccccn2)C1", "note": "(stereo not given)", "Potency": "inconclusive [inhibitor, single point]"}, {"smiles": "CCN(CC)P(=O)(c1n(CC)cc[n+]1CC)N(CC)CC", "Potency": "inconclusive [inhibitor, single point]"}, {"smiles": "COc1ccc(O)c2c(=O)c3c(OC)cc4c(c3oc12)C1C=COC1O4", "note": "(stereo not given)", "Potency": "active: 0.92 µM"}, {"smiles": "C[C@@H](NC(=O)C[C@@H]1C[C@@H]2c3cc(NS(=O)(=O)c4ccc(F)cc4)ccc3O[C@@H]2[C@@H](CO)O1)c1ccccc1", "Potency": "inconclusive [inhibitor, single point]"}, {"smiles": "CC(O)C1C=CC=CC(=O)OC2CC3OC4C5OC5(C)C(O)CC4(COC(=O)C(O)C(C)CCO1)C2(C)C31CO1", "note": "(stereo not given)", "Potency": "active: 0.146 µM"}, {"smiles": "CCCCCc1nc2c(c(=O)c3ccccc3n2C)c(=O)n1C1CCCCCC1", "Potency": "active: 18.4 µM"}, {"smiles": "CC(C)c1ccc(NC(=O)Cn2c(=O)oc3cc(S(=O)(=O)N4CCCC4)ccc32)cc1", "Potency": "inconclusive [inhibitor, full curve, poor fit]"}, {"smiles": "CN1CCc2nc3sc(C#N)c(N)c3c(-c3cccs3)c2C1", "Potency": "active: 20.6 µM"}, {"smiles": "COc1ccc2cc1Oc1ccc(cc1)C[C@H]1c3cc(c(OC)cc3CCN1C)Oc1c(O)c(OC)cc3c1[C@H](C2)N(C)CC3", "Potency": "active: 8.2 µM"}, {"smiles": "CCCCCn1c(=O)c(C(=O)Nc2cccc(C)n2)c(O)c2ccccc21", "Potency": "inconclusive [inhibitor, single point]"}, {"smiles": "O=S(=O)(O)C(F)(F)C(F)(F)C(F)(F)C(F)(F)C(F)(F)C(F)(F)C(F)(F)C(F)(F)F", "Potency": "inconclusive [inhibitor, single point]"}, {"smiles": "CC1CC(C)CN(S(=O)(=O)c2ccc3c(c2)oc(=O)n3CC(=O)NCc2cccnc2)C1", "note": "(stereo not given)", "Potency": "inconclusive [inhibitor, single point]"}, {"smiles": "O=C(Oc1ccccc1)N1CCC2(CC1)CN(C(c1ccccc1)c1ccccc1)C2", "Potency": "inconclusive [inhibitor, single point]"}, {"smiles": "S=C1NCCN1", "activity change, negative = growth inhibition": "inactive: -8.2%"}, {"smiles": "CN1CCN(c2ccccc2NC(=O)c2ccc(-c3ccc(Cl)c(Cl)c3)o2)CC1", "Potency": "inconclusive [inhibitor, single point]"}, {"smiles": "O=C(Nc1nc(-c2ccccc2)c(-c2ccccc2)s1)c1ccc(S(=O)(=O)N(CCCl)CCCl)cc1", "Potency": "inconclusive [inhibitor, single point]"}, {"smiles": "O=C1Nc2cc(Cl)c(Cl)cc2N2CCNC[C@H]12", "Potency": "inconclusive [inhibitor, partial curve, poor fit]"}, {"smiles": "COc1ccc(NC(c2ccccc2F)P(=O)(Oc2ccccc2)Oc2ccccc2)cc1", "note": "(stereo not given)", "Potency": "inconclusive [inhibitor, single point]"}, {"smiles": "CS(=O)(=O)NNP(=O)(NNS(C)(=O)=O)NC(=O)c1ccc(Br)cc1", "activity change, negative = growth inhibition": "inactive: -0.36%"}, {"smiles": "CCOc1ccc(-n2c(SCc3nc(-c4ccccc4C)no3)nnc2-c2ccccc2)cc1", "Potency": "inconclusive [inhibitor, partial curve]"}, {"smiles": "O=[N+]([O-])c1ccc(-c2ccccc2)c([As](=O)(O)O)c1", "Potency": "active: 9.2 µM"}, {"smiles": "CCOC(=O)c1ccc(NC(=O)c2cccn(Cc3ccccc3F)c2=O)cc1", "Potency": "active: 20.6 µM"}, {"smiles": "CCOc1ccc(CCNC(=O)c2cc3c(-c4cccc(OC)c4)nn(C)c3s2)cc1OCC", "Potency": "active: 18.4 µM"}, {"smiles": "COc1ccc(NC(=O)Nc2ccc3c(c2)C(=O)N([C@H](C)CO)C[C@H](C)[C@@H](CN(C)Cc2ccc(Cl)c(Cl)c2)OCCCC[C@@H](C)O3)cc1", "Potency": "active: 16.4 µM"}, {"smiles": "O=C1NC(=O)N(c2ccccc2)C(=O)/C1=C/c1coc2ccc(O)cc2c1=O", "Potency": "active: 14.6 µM"}, {"smiles": "C#CC[N+]1(C)C2CCC1CC(O)C2", "note": "(stereo not given)", "activity change, negative = growth inhibition": "inactive: 4.92%"}, {"smiles": "C[C@]12CC[C@@H]3c4ccc(OC(=O)N(CCCl)CCCl)cc4CC[C@H]3[C@@H]1CC[C@@H]2OP(=O)(O)O", "Potency": "inactive"}, {"smiles": "O=c1c(F)cn(C2CCCO2)c(=O)n1Cc1c(F)cccc1Cl", "note": "(stereo not given)", "Potency": "inconclusive [inhibitor, single point]"}, {"smiles": "COc1ccc(CNCCc2ccc3c(c2)OCO3)c(OC)c1OC", "activity change, negative = growth inhibition": "inactive: -22.3%"}, {"smiles": "CN1CCc2cccc(Cl)c2CC1", "activity change, negative = growth inhibition": "inactive: 3.37%"}, {"smiles": "CCCCOP(=O)(OCCCC)C(O)c1ccc(F)cc1", "note": "(stereo not given)", "Potency": "inconclusive [inhibitor, single point]"}, {"smiles": "CC(C)CN1CC[C@@]2(CCCN(C(=O)c3ccncc3)C2)C1", "activity change, negative = growth inhibition": "inactive: 0.447%"}, {"smiles": "COc1c2c(cc3c1OCO3)CCN(C)C2", "Potency": "inconclusive [inhibitor, partial curve, poor fit]"}, {"smiles": "CCOP(=O)(OCC)/C(=N/OC(=O)c1ccccc1C)C(N)=O", "Potency": "active: 13 µM"}, {"smiles": "Cc1ccccc1C(=O)N1Cc2ccccc2-n2nncc2C1", "Potency": "inconclusive [inhibitor, single point]"}, {"smiles": "N[C@H](Cc1o[nH]c(=O)c1Cl)C(=O)O", "activity change, negative = growth inhibition": "inactive: -6.29%"}, {"smiles": "CCC(C)N1CCN(C(=O)COc2ccc3ccccc3c2)CC1", "note": "(stereo not given)", "Potency": "inconclusive [inhibitor, partial curve]"}, {"smiles": "CCN(c1ccc(C(O)(C(=O)OC)C(F)(F)F)cc1)S(=O)(=O)c1ccccc1", "note": "(stereo not given)", "Potency": "inconclusive [inhibitor, single point]"}, {"smiles": "CC1CC2(C)C(CCC3C2CCC2(C)C(OP(=O)(N4CC4)N4CC4)CCC32)CC1=O", "note": "(stereo not given)", "Potency": "inconclusive [inhibitor, single point]"}, {"smiles": "CC(C)CN1CCCC2(CCN(C(=O)c3ccncc3)CC2)C1", "activity change, negative = growth inhibition": "inactive: 1.23%"}, {"smiles": "C[C@@H]1CN([C@H](C)CO)C(=O)c2c(c3ccccc3n2C)-c2ccccc2CO[C@H]1CN(C)C(=O)c1cc(Cl)cc(Cl)c1", "Potency": "inconclusive [inhibitor, partial curve]"}, {"smiles": "Cn1c(=O)oc2cc(S(=O)(=O)N3CCCC(C(=O)N4CCN(c5ccc(Cl)cc5)CC4)C3)ccc21", "note": "(stereo not given)", "Potency": "active: 1.3 µM"}, {"smiles": "C[C@H](CO)N1C[C@H](C)[C@@H](CN(C)Cc2ccc(Cl)c(Cl)c2)Oc2c(NC(=O)c3ccncc3)cccc2C1=O", "Potency": "inconclusive [inhibitor, single point]"}, {"smiles": "c1ccc2c(CN3CCOCC3)c[nH]c2c1", "Potency": "inconclusive [inhibitor, single point]"}, {"smiles": "COC(=O)C12CCc3cc(OC)ccc3C1=CC(=O)C2", "note": "(stereo not given)", "activity change, negative = growth inhibition": "inconclusive: -33.8% [inhibitor]"}, {"smiles": "COC(=O)N1C(c2ccccc2)C1c1ccccc1", "note": "(stereo not given)", "Potency": "inconclusive [inhibitor, single point]"}, {"smiles": "CCOC(=O)c1ccccc1NC(=O)c1c(O)[nH]c(=S)[nH]c1=O", "activity change, negative = growth inhibition": "inactive: -0.344%"}, {"smiles": "CCc1ccccc1NC(=O)CNCc1ccccc1", "activity change, negative = growth inhibition": "inactive: -3.52%"}, {"smiles": "N#CCCN(C(=O)COC(=O)c1ccc2c(c1)NC(=O)CS2)c1ccc2c(c1)OCCO2", "Potency": "inconclusive [inhibitor, single point]"}, {"smiles": "COc1cccc(C2CCN(CC(=O)Nc3cc(Cl)ccc3OC)CC2O)c1", "note": "(stereo not given)", "activity change, negative = growth inhibition": "inactive: -27.5%"}, {"smiles": "Cc1ccccc1Cn1cnc2c(oc3ccccc32)c1=O", "Potency": "inconclusive [inhibitor, partial curve]"}, {"smiles": "COc1ccc(C(c2nnnn2-c2ccc(OC)cc2)N2CCC3(CC2)C(=O)NCN3c2ccccc2)cc1", "note": "(stereo not given)", "Potency": "inconclusive [inhibitor, single point]"}, {"smiles": "CC[C@]1(O)CC[C@H]2[C@@H]3CCC4=CCCC[C@@H]4[C@H]3CC[C@@]21C", "Potency": "active: 5.31 µM"}, {"smiles": "O=C(c1ccco1)c1cn(Cc2ccc(Cl)cc2)c2ccccc12", "Potency": "inconclusive [inhibitor, single point]"}, {"smiles": "O=C(COc1ccc(S(=O)(=O)N2CCOCC2)cc1)N1CCN(Cc2ccc3c(c2)OCO3)CC1", "Potency": "inconclusive [inhibitor, partial curve]"}]}]}
